Values marked as one replicate rest on one cluster of the flow cell; about a third of the high ones do not repeat.
test system: ATP; assay: switch fluorescence ratio, 500 uM ATP over buffer (Cy3 cluster intensity, sum of 5 cycles each) (fold (ratio)); higher = stronger signal-on switching upon ATP binding; sequences stand for … in TCGTCGGCAGCGTCAGATGTGTATAAGAGACAGTTTTTTTTTTTTTTTTTTTTTTTTT…TC; details: aptamer strand: ATP DNA aptamer (quencher-CACCTGGGGGAGTATTGCGGAGGAAGG + anchor), 100 nM annealed; ATP concentration: 500 uM; one replicate
Method in brief: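 Exposure to 500 uM ATP lasted 15 min at 22 °C before imaging, and a selection-buffer image was taken beforehand, for Cy3-labelled switching-strand clusters on a modified Illumina MiSeq flow-cell annealed to 100 nM quencher-labelled ATP aptamer. Five buffer/ATP cycles were run with NaOH stripping and re-annealing between them. The fluorescence ratio per cluster is summed target-cycle over summed buffer-cycle Cy3 intensity, averaged per switch-domain sequence. Clusters outside 100-1000 RFU were excluded.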

Row | Sequence | switch fluorescence ratio
1 | CCTCTGGGTG | 4.64
2 | CGCCTGCATG | 1.2
3 | TAGTAGTTGG | 0.994
4 | CCTTCTCACC | 1.3
5 | GGATACCGGC | 1.01
6 | ATGGTCCTGA | 0.99
7 | CAATTATGTT | 0.968
8 | AGGCCATGAA | 1.01
9 | CTATGTGCTA | 0.973
10 | ATAAAAATTC | 1.01
11 | GGGCCAAGT | 0.996
12 | CCAAAGCCTG | 0.998
13 | GGGTTGTTAA | 0.981
14 | ATGAGGTACG | 1.02
15 | GAGCATCAAC | 1.09
16 | AGAACCCTGA | 1.15
17 | CGTCGATGTT | 0.983
18 | GAAAGAATGA | 1
19 | GCGCCCGAAG | 1.37
20 | TAACGAACTG | 1.03
21 | CAAAATGGCA | 1.02
22 | TGGACCGTC | 0.995
23 | AGATGTCCGC | 1.17

Row | Sequence | switch fluorescence ratio
24 | CACATAATGT | 1
25 | TTTTACCAGG | 1.27
26 | CCCTGTAGAA | 1
27 | CATTGTATAG | 0.992
28 | GCGCCAACC | 1.06
29 | CTCCGGGTTT | 1.42
30 | GCACTCAGTG | 1.01
31 | ATGAATATCG | 1.01
32 | TCTAGGCCGG | 0.962
33 | GCTACTGACG | 1.07
34 | TGCAAAATCA | 0.975
35 | TGGTATTAGC | 1
36 | GAAAAACTTT | 1.01
37 | AAGCCACTTT | 1.09
38 | AGTTGCGCAC | 0.969
39 | GCGGCAGTGG | 0.999
40 | GGGGATCCTC | 1.04
41 | CGATCATTGT | 0.956
42 | GACGCCGCTA | 1.47
43 | CTTTTGTGCC | 1.04
44 | AGGACGTTAG | 0.994
45 | GAGGACATT | 1.03
46 | TTGAAGATGC | 1.03

Row | Sequence | switch fluorescence ratio
47 | GCTGTCAAGT | 0.957
48 | CCGTTGTTTT | 1.05
49 | AGGCAGCTGA | 1.03
50 | TGGACGTGTG | 0.985
51 | TAAGACCGTA | 0.984
52 | ATTACTGATG | 1.01
53 | GGGGTTCCC | 0.986
54 | TGGGATGGG | 0.935
55 | GTAAAACGTG | 0.967
56 | CTAAGGGGA | 1.02
57 | CGTACGAGGC | 1.08
58 | TATAGTCTAC | 0.997
59 | TCTAAGCTTC | 1.12
60 | CTTCCGAACT | 1.57
61 | TCCCGGAGCT | 2.75
62 | AGGCGATCGT | 1.04
63 | TCGGGCATTC | 1.44
64 | CACAACTTTG | 0.995
65 | GAGGGTCGTT | 1.05
66 | CGGCATCAC | 2.26
67 | CGTAGCGTGT | 0.999
68 | GACAGCGGGA | 1.01
69 | ACTCGCTCG | 1.04

Row | Sequence | switch fluorescence ratio
70 | ATTTTCATCT | 0.963
71 | GAGCCAGCGT | 0.997
72 | ATGGGCTAAG | 1.04
73 | CAGCTTTGGG | 1.03
74 | AACTTGAACT | 1
75 | GAAAAAATTC | 1.05
76 | CATCGGGATG | 0.982
77 | AATCCCGGCT | 1.1
78 | TACACTTCTA | 1
79 | ACTACCATTG | 1.17
80 | TTATGCTAAC | 2.56
81 | TGTGTTAGTC | 0.993
82 | ACAGACCCAT | 1.08
83 | AATTTCGGTT | 1
84 | GGTGAATCGA | 0.995
85 | CCCATATGGT | 1.01
86 | GTTGATATAC | 1.01
87 | AAGCGCCATC | 1.08
88 | GTCGGATTTC | 0.994
89 | TAGGGGTGTG | 1.02
90 | GAATTTTGCA | 0.99
91 | ACCAATGGAA | 1.01
92 | CCGATTGGTG | 1.16

Row | Sequence | switch fluorescence ratio
93 | GGCACCGAAC | 1.24
94 | AGTACAGTG | 1.07
95 | TGGCAAAAAT | 0.919
96 | CTTTTCCCGT | 0.993
97 | TGATTCGCGA | 1.08
98 | CTATTATGCG | 0.984
99 | GTGAAGGCAA | 1.36
100 | TCTATAAAAT | 1.01
101 | TATTATCTGA | 1.04
102 | TTTTAAGATG | 1.2
103 | CGGCCTAGGG | 1.01
104 | TCTGTGAACG | 0.986
105 | GGTTGGTCGC | 1.02
106 | GGTAACCAGT | 0.971
107 | CCATAGTTGG | 1.01
108 | TCCTGGGTCC | 0.969
109 | CAACGCCCGA | 1.17
110 | GACTTTCTGG | 0.981
111 | CTTCGTTCAG | 1.01
112 | TCCTGCCCAG | 1.37
113 | TCGTTGTTG | 1.05
114 | AGTAACTTCT | 0.994
115 | ATGAGAAA | 1.03

Row | Sequence | switch fluorescence ratio
116 | CCGTGGAGGG | 0.995
117 | GAACGCGTGC | 1.63
118 | CGCTCCGTGA | 3.46
119 | TCTCATGAGA | 1
120 | AGGTGTCAAG | 1
121 | TTCTTGGGGC | 0.986
122 | TAAGTGTTAT | 1.03
123 | ACCAAAGGAT | 1.14
124 | TAATGCCGGG | 1.18
125 | AATAGCTAAG | 1.02
126 | GAACCCTTGG | 1.03
127 | GTTATCGGAG | 1.01
128 | TTAATTCTTA | 1.02
129 | CTACTACCCT | 1.16
130 | TAACCTGGGC | 1.13
131 | ATACTTGTAC | 1.17
132 | CGTTAACGTA | 0.985
133 | AATTGTTTCC | 1.36
134 | CGTCACCAGC | 0.989
135 | AGAAAAATAT | 1.06
136 | TCCACTAGAA | 0.996
137 | AATGGTTTTA | 1.03
138 | GTTTTGCTTT | 0.929

Row | Sequence | switch fluorescence ratio
139 | TACTCAAGC | 1.03
140 | AGCTCGTATA | 1.02
141 | ATAACTAGCC | 0.97
142 | CCAATCCGGA | 1.06
143 | ACAAACTTCT | 1.16
144 | TATCTCTGT | 1.04
145 | GCCAGCTGCG | 0.982
146 | GGCTACTAAA | 0.971
147 | ATACTCACAT | 1.3
148 | GACGAGGAAT | 1.06
149 | ATCTAGCGGC | 1.08
150 | TATCCGGGTT | 1.02
151 | CGTCTGCCAA | 1.54
152 | GGCCGCGCTT | 0.984
153 | GCAGGGGAGC | 1.06
154 | TTATCCCGT | 0.98
155 | CTGCTTATGT | 1
156 | GAATTTCTTG | 1.03
157 | TCCCCAAAAG | 1.1

Source: the supplement of paper PMC10126150
